From PubChem BioAssay (NCI)
Values joined by “and” are separate entries in the source; they are usually repeats but may differ in a detail not shown here. Equal entries are not always repeated.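 Growth conditions: 96-well plates. Treatment: test compound, 48 hours, 5 concentrations. Analysis: linear interpolation between bracketing concentrations; unreached endpoints set to highest concentration. GI50 is the concentration that inhibits growth by half. TGI: concentration producing complete growth inhibition.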 Active and inactive are the calls of the source. No stated cut-off is given here; in the data, active means GI50 below about 0.43 µM; inactive means the rest. Peptide text beside a SMILES is read from it. * marks the point of attachment. Boc = CC(C)(C)OC(=O)*

System: NCI-H322M lung
Assay: inhibition of tumour cell growth, NCI panel, 48 h

Compound | TGI | GI50 [µM] | outcome
CCOC(=O)CO/N=C\C1=CC(=O)C2CC1C2(C)C (stereo unspecified) | > 100 µM |  | 
C=CC(C)c1cccc(C=O)c1O (stereo unspecified) | > 100 µM | > 100 | 
CN1C[C@@H](c2ccc(Cl)cc2)[C@]2(NC(=S)N(c3ccc(F)c(Cl)c3)C2=O)[C@@]12C(=O)NC1C=CC(Cl)=C[C@H]12 (stereo partly specified) | 24.2 µM | 3.61 | 
O=[N+]([O-])c1cccc2nc3ccccc3c(NCCN(CCO)CCO)c12 | 0.0353 µM and 0.0434 µM |  | 
O=C(O)CNS(=O)(=O)c1ccc(NC(=O)c2ccccc2[N+](=O)[O-])cc1 | > 100 µM |  | 
O=C(CSc1ncnc2nc[nH]c12)c1ccccc1 | > 100 µM |  | 
CCOC(=O)C(=Cc1ccccc1Cl)C(=O)OCC | 3.35 µM |  | 
O=C1CCc2c(Oc3ccc4c(c3)[C@H]3[C@@H](O4)[C@@H]3c3nc4ccc(C(F)(F)F)cc4[nH]3)ccnc2N1 | > 100 µM | 1.86 | 
Cn1c(=O)nc2n(-c3cccc(Cl)c3)c3ccccc3nc-2c1=O | 66.6 µM |  | 
O=C1C(Cl)C(c2cc(Br)ccc2O)N1n1cnc2ccccc2c1=O (stereo unspecified) | 50 µM |  | 
CCOC(=O)/C(=C/c1ccc(C(F)(F)F)cc1)N(CC)CC | > 100 µM |  | 
CC(C)C[C@@H](NC(=O)[C@@H](Cc1cccc2ccccc12)NC(=O)N1CCOCC1)B(O)O | > 100 µM |  | 
Cc1cc(C)c([S@@](=O)O[C@@H]2[C@H]3OC(C)(C)O[C@H]3O[C@@H]2[C@H]2COC(C)(C)O2)c(C)c1 | > 100 µM |  | 
CC1(C)O[C@@H](CC/C=C/CO)[C@H](CC/C=C/CO)O1 | > 100 µM |  | 
COc1cc([C@@H]2c3cc4c(c(O[C@@H]5O[C@H]6CO[C@@H](C)O[C@H]6[C@H](O)[C@@H]5O)c3C[C@H]3COC(=O)[C@@H]32)OCO4)cc(OC)c1O | > 100 µM |  | 
NCCNC1=CC(=O)c2nc3ccccc3c3ccnc1c23 | 30.8 µM | 4.3 | 
COc1nc2c(nc(N)n2C2OC(CO)C(O)C(O)C2O)c(=O)[nH]1 (stereo unspecified) | > 100 µM |  | 
Cc1ccc(C2C3Cc4ccccc4C3=NN2c2ccc(S(=O)(=O)NC(=O)NC3CCCCC3)cc2)cc1 (stereo unspecified) | 25.7 µM | 4.65 | 
COc1ccc(Cc2c(-c3ccc(C)cc3)n[nH]c(=O)c2C2C(=O)N(c3ccccc3)N=C2c2ccccc2)cc1 (stereo unspecified) | 78.6 µM |  | 
COC(=O)c1c(C)c2n(c1C)C(=O)C(c1ccccc1)=C2 | > 100 µM | > 87.2 | 
O=C(Nc1c(O)[nH]c(=S)[nH]c1=O)c1ccco1 | > 100 µM |  | 
CC1=NN(c2cccc(Cl)c2)C2(C1=Cc1ccccc1)C(Cl)C(=O)N2c1nc2ccccc2s1 (stereo unspecified) | 65.6 µM |  | 
C[C@@H](CC(O)C1OC1(C)C)[C@@H]1CC[C@]2(C)C3=CCC4C(C)(C)C(O)CC[C@]4(C)C3CCC12C (stereo partly specified) | 86.4 µM |  | 
COC(=O)C(=O)C(C(=O)C(=O)Nc1ccc([N+](=O)[O-])cc1[N+](=O)[O-])c1nc2ccc(Cl)cc2[nH]c1=O (stereo unspecified) | > 100 µM |  | 

Compound | TGI | GI50 [µM] | outcome
CCc1n[nH]c(=O)n1N1C(=O)C2CCCCC2C1=O (stereo unspecified) | > 100 µM |  | 
O=C(NC1C(O)C(O)C(CO)OC1n1cc(F)c(=O)[nH]c1=O)OCc1ccccc1 (stereo unspecified) | > 100 µM |  | 
O=C(CC1(O)C(=O)Nc2ccccc21)c1ccc2ccccc2c1 (stereo unspecified) | > 100 µM |  | 
O=C1C(Br)=C(C2=CC(=P(c3ccccc3)(c3ccccc3)c3ccccc3)C=C2)C(=O)C(Br)=C1C1=CC(=P(c2ccccc2)(c2ccccc2)c2ccccc2)C=C1 | > 100 µM |  | 
[N-]=[N+]=NCC1OC(n2cnc3c(N)ncnc32)C2OC12 (stereo unspecified) | > 100 µM |  | 
COc1cc(COC(=O)N2CSCC2C(=O)O)c([N+](=O)[O-])cc1OC (stereo unspecified) | > 100 µM |  | 
CCOC(=O)C(C)c1nc2cc3cccnc3c(Cl)c2[nH]c1=O (stereo unspecified) | > 100 µM |  | 
CCOC(=O)C(C)c1nc2cc(N3CCOCC3)c(F)cc2[nH]c1=O (stereo unspecified) | > 100 µM |  | 
CC(C)(C)OC(=O)NC(Cc1ccccc1)C(=O)N1CCCC1C(N)=O (stereo not drawn) (Boc-Phe-Pro-NH2; configuration not given here) | > 100 µM |  | 
COc1ccc(/C=c2/s/c(=C(\C#N)c3nc4ccccc4[nH]3)n(-c3ccccc3)c2=O)cc1 | > 100 µM |  | 
O=C1c2ccccc2C(=O)N1CCCC(=O)n1cc(F)c(=O)[nH]c1=O | > 100 µM |  | 
Cc1ccc(NCCN(C)C)c2c(=O)c3cc(O)ccc3oc12 | 27 µM |  | 
O=C1NC(=O)C(c2c[nH]c3cc(Br)ccc23)=C1c1cnc[nH]1 | > 100 µM |  | 
NC(=O)c1c(Br)n(C2OC(CO)C(O)C2O)c2ncnc(N)c12 (stereo unspecified) | 19 µM | 1.89 | 
CC1(C)CC[C@]2(C(=O)O)CC[C@]3(C)C(=CC[C@@H]4[C@@]5(C)CC[C@H](OC6OC(C(=O)O)C(O)C(O)C6O)C(C)(C)[C@@H]5CC[C@]43C)[C@@H]2C1 (stereo partly specified) | 26.4 µM |  | 
COc1ccc(OC)c(/C=C/C(=O)N/N=C/c2ccccc2)c1 | > 100 µM | 5.23 | 
O=c1oc2c3ccc4ccccc4c3n(CCCN3CCCCC3)c2c2ccccc12 | > 100 µM |  | 
CC(=O)OC(C[C@H](C)[C@@H]1CC[C@]2(C)C3=CCC4C(C)(C)C(=O)CC[C@]4(C)C3CCC12C)C1OC1(C)C (stereo partly specified) | 42.8 µM |  | 
O=C(O)c1cccc(SSc2cccc(C(=O)O)c2)c1 | > 100 µM |  | 
Cc1ccc(C(=O)CC(O)(C(F)(F)F)C(F)(F)F)cc1[N+](=O)[O-] | 5.3 µM |  | 
CCOC(=O)C1=C(C)NC(C)=C(C(=O)OCC)C1c1ccc(Cl)cc1 | 27.9 µM |  | 
N#CCCC1(CCC#N)CCCCCCC(CCC#N)(CCC#N)C(=O)C1=O | > 100 µM |  | 
Cc1nc2ccc(Cl)cc2c(Cl)c1CCCl | > 100 µM |  | 
O=C(Nc1sccc1S(=O)(=O)c1ccc(Cl)cc1)c1ccc(Cl)cc1 | > 100 µM |  | 

Compound | TGI | GI50 [µM] | outcome
COC(=O)C(CCCCCCCC(C(=O)OC)c1nc2n(c1O)C(=N)N=N2)c1nc2n(c1O)C(=N)N=N2 (stereo unspecified) | > 100 µM |  | 
COC(=O)[C@@]1(C)CCC[C@]2(C)[C@H]3Cc4occc4[C@H](C)[C@@H]3CC[C@@]12O | > 100 µM | 43.9 | 
COc1cc(-c2nn(-c3ccc(NC(=O)NCCNS(=O)(=O)c4ccc(F)cc4)cc3)cc2-c2ccncc2)ccc1Cl | 7.32 µM | 0.843 | 
CC1(C)CC(=O)c2c(nc3c4c([nH]c(-c5ccc([N+](=O)[O-])cc5)c24)CC(C)(C)C3)C1 | > 100 µM |  | 
ClC(Cl)c1nc(-c2ccccc2)n2nc(-c3ccccc3)cc2n1 | 1.71 µM | 0.414 | 
N#CC1C(=O)C(=O)N(c2ccccc2)C1=O (stereo unspecified) | > 100 µM |  | 
CCN(Cc1ccccn1)c1ccc(CO)c(Cl)c1 | > 100 µM | 28.3 | 
O=S(=O)(SCCCCSS(=O)(=O)c1ccc(Cl)cc1)c1ccc(Cl)cc1 | 31.6 µM |  | 
N#C/C(=C\Nc1ccccn1)C(=O)C1CC1 | > 100 µM |  | 
NC(=S)Nc1[nH]c(=S)nc2[nH]ccc12 | > 100 µM |  | 
Cc1c(-c2c(C)c(=O)c3c(C(C)C)c(=O)c(=O)c(C=O)c-3c2=O)c(O)c2c(C=O)c(O)c(O)c(C(C)C)c2c1O | 7.27 µM |  | 
CCCNC1=C(C)C(=O)C2=C(C1=O)[C@H](COC(N)=O)[C@]1(OC)[C@@H]3N[C@@H]3CN21 | 36.1 µM |  | 
C=CC[C@@]1(OC(C)=O)C(=O)C(=O)OC1C1COC(C)(C)O1 (stereo partly specified) | > 100 µM |  | 
COC(=O)Cc1c(-c2[nH]c3ccccc3c2CC(=O)OC)[nH]c2ccccc12 | > 100 µM |  | 
CCc1cccc(C)c1NC(=O)CCc1n[nH]c(=S)o1 | > 100 µM |  | 
C/C=C/C1=CN2C(=O)c3cc(OC4OC(C)C(NC)C(C)(O)C4O)c(C)cc3N=C[C@@H]2C1 (stereo partly specified) |  | 0.166 | 
O=P1(N(CCCl)CCCl)Oc2ccc(Cl)cc2Sc2c(ccc(Cl)c2Cl)O1 (stereo unspecified) | > 100 µM |  | 
CCOC(=O)CCC(NC(=O)c1ccc(Sc2nc3cc(N)cc(N)c3nc2-c2ccccc2)cc1)C(=O)OCC (stereo unspecified) | > 100 µM | 5.14 | 
O=C(O)CNCP(=O)(O)O | > 100 µM |  | 
C/C(=N\[N+](C)(C)C)c1ccc(C)c(C)c1 | > 100 µM |  | 
CCc1ccccc1NC(=O)C1=C(C)NC(C)=C(C(=O)Nc2c(CC)cccc2CC)C1c1ccc2c(c1)OCO2 (stereo unspecified) | 43.3 µM |  | 
C=CCCCCC1CCC2CCC(CCCC)N12 (stereo unspecified) |  |  | inactive
CCCC(=O)OCC1OC(n2cnc3c(=S)nc(N)[nH]c32)C(OC(=O)CCC)C1OC(=O)CCC (stereo unspecified) | > 100 µM | 11.9 | 
CC(C)CC(NC(=O)C(Cc1ccccc1)NC(=O)[C@H]1CC[C@H](NC(=O)C(Cc2ccc(OC(C)(C)C)cc2)NC(=O)OC(C)(C)C)C1)C(N)=O (stereo partly specified) | > 100 µM |  | 

Compound | TGI | GI50 [µM] | outcome
COc1cccc(/C=C2\COc3ccc(O)c(O)c3C2=O)c1 | 9.31 µM | 2.35 | 
COc1ccc(/C=C/C(=O)c2ccc(Cl)cc2Cl)cc1 | 37.8 µM | 19 | 
O=C(Cc1ccccc1CCO)NCCc1ccccc1 | > 100 µM |  | 
Oc1ccc[n+](Cc2ccccc2)c1 | > 100 µM |  | 
COc1cc(O)cc2oc(-c3ccc(O)cc3)cc(=O)c12 | > 100 µM |  | 
CC(C)N(Cc1c(F)cccc1F)c1ccc(CO)c(Cl)c1 | 12.6 µM | 2.43 | 
COc1ccc(C2Oc3ccc(Cl)cc3C=C2[N+](=O)[O-])cc1OC (stereo unspecified) | 2.86 µM |  | 
CCOC(=O)CCSS(=O)(=O)c1ccccc1 | > 100 µM |  | 
Nc1nc(N)c2nc(CNc3ccc(C(=O)NC(CCC(=O)O)C(=O)O)cc3F)cnc2n1 (stereo unspecified) | > 100 µM |  | 
O=C1NC(N/N=C/c2cccs2)=N/C1=C\c1ccco1 | > 100 µM |  | 
CC1(C)[C@@H]2CC[C@@]1(C)C1(SS1=O)C21Cc2ccccc2C1 (stereo partly specified) | > 100 µM |  | 
Cn1c(=O)c2[nH]c(CSCc3ccccc3)nc2n(C)c1=O | > 100 µM |  | 
CC[C@H](C)[C@H]1NC(=O)[C@@H](NC(=O)[C@@H](CC(C)C)N(C)C(=O)C2CCCN2C(=O)[C@H](C)O)[C@@H](C)OC(=O)[C@@H]2Cc3ccccc3CN2C(=O)[C@@H]2CCCN2C(=O)[C@H](CC(C)C)NC(=O)[C@@H](C)C(=O)[C@H](C(C)C)OC(=O)C[C@@H]1O (stereo partly specified) | 8.5 µM |  | 
O=C(OCCO)C1CC2CC1C1(C2)OCCO1 (stereo unspecified) | > 100 µM |  | 
C=CC1(c2ccc(-c3ccccc3)cc2)OCCO1 | > 100 µM |  | 
S=c1ssnc1-c1ccccn1 | 52.7 µM | 11.3 | 
CCN(CC)CCNC(=O)c1cc2cc(NC(=O)c3cc4cc(N)ccc4[nH]3)ccc2[nH]1 | 69.8 µM |  | 
CC(=O)OCCn1c(Cc2ccc(C)cc2)nn(C(C)=O)c1=O | > 100 µM |  | 
Cc1ccc(-c2nc3nc(-c4ccc(Br)cc4)nc(N4CCCNCC4)c3o2)cc1 | 16 µM | 4.33 | 
O=C(O)C(F)(F)C(F)(F)C(F)(F)C(F)(F)C(F)(F)C(F)(F)C(F)(F)C(F)(F)F | > 100 µM |  | 
O=C1OCC(C#Cc2ccccc2)=C1Br | 35.7 µM | 17.2 | 
CC1(c2ccccc2)CCN(C2CC2)CO1 (stereo unspecified) | > 100 µM |  | 
COc1ccc(/C=C/c2cc(OC)c(OC)c(OC)c2)cc1O[Si](C)(C)C(C)(C)C | > 100 µM |  | 
COc1ccc([C@H]2CC(=O)C[C@H](c3ccc(OC)cc3OC)C23C(=O)c2ccccc2C3=O)c(OC)c1 | > 100 µM |  | 
